Measured values reported in paper PMC12040169 (PLOS Biology, 2025).
This is one part of the list.

Test system: T1, C. trachomatis L2/434/Bu expressing GFP (CTL2-GFP)
T1 construct: L2/434/Bu GFP intracellular growth in HeLa cells
Set-up: species or system HeLa; C. trachomatis total inclusion area by high-content imaging, normalised to DMSO
Settings: total inclusion area; 28.5 h, 10 µM; inhibitor
In short: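 Imaging read-out: GFP inclusions and Hoechst nuclei captured by high-content imaging after fixation. Inclusion area/number = chlamydial growth; nuclei count = host cell viability. MIC calculated per earlier method.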

Row | Compound | % of control remaining
1 | C=CCC1(CC=C)CCN1C(=O)c1cc2c([nH]c1=O)CCCCC2 [CBK282524] | 126.791
2 | O=c1[nH]c(=O)c2cc(S(=O)(=O)Nc3cccc(-c4ccc(F)cc4)c3)ccc2[nH]1 [CBK286394] | 115.619
3 | CCCc1[nH]nc(O)c1CCc1ccc(OC)cc1 [CBK081128] | 108.709
4 | CC(=O)Nc1ccc(C(=O)NC(c2cccs2)C2CCCC2)cc1 (centres unmarked) [CBK297777] | 101.474
5 | Cc1c(C(=O)C2=C(O)C(=O)N(Cc3cccnc3)C2c2cccnc2)cnn1-c1ccccc1 (centres unmarked) [CBK266543] | 115.892
6 | COc1cccn(CC(=O)N2CCc3sc(C(=O)N(C)C)cc3C2)c1=O [CBK307665] | 89.1924
7 | COc1ccc(OCC(=O)Nc2nonc2-c2ccccc2)cc1 [CBK287798] | 104.208
8 | Cc1ccc2nc(-c3ccc(N4C(=O)CC(N5CCC(N6CCCCC6)CC5)C4=O)cc3)sc2c1 (centres unmarked) [CBK265315] | 94.4817
9 | COc1cc(/C=N/NC(=O)Cc2nnc(N)s2)cc(OC)c1OC [CBK262027] | 95.8326
10 | CCn1ncc2c1CCCC2NC1CCN(c2ccc(C#N)cc2)C1=O (centres unmarked) [CBK305200] | 69.8709
11 | O=C(OCC#CCSc1nnc(-c2ccncc2)o1)c1sc2ccccc2c1Cl [CBK265677] | 101.549
12 | O=C1c2ccccc2C2(c3ccccc3)NCCN12 (centres unmarked) [CBK067098] | 102.829
13 | Cc1ccc(S(=O)(=O)N(CC(=O)NCC2CCCO2)c2ccccc2)cc1 (centres unmarked) [CBK264140] | 111.295
14 | COc1ccc(Oc2c(-c3ccc(O)cc3O)n[nH]c2C)cc1 [CBK288239] | 85.4035
15 | O=C(CC1CCN(CCc2ccccc2)CC1)Nc1cccc(-n2cccn2)c1 [CBK285951] | 0.729
16 | COc1cccc(/C=N/c2cc(S(=O)(=O)c3ccc(O)c(/N=C/c4cccc(OC)c4O)c3)ccc2O)c1O [CBK261225] | 89.9616
17 | COc1ccccc1Nc1nc(C)cc(C)c1C(N)=O [CBK287960] | 124.597
18 | CCCn1ncc(C(=O)NC(C)c2c(C)nn(CC)c2C)c1C (centres unmarked) [CBK281532] | 104.982
19 | Cn1ncc2ccc(-c3nnn[nH]3)cc21 [CBK304776] | 29.8956
20 | COc1ncc(-c2cn3ccnc3c(N3CCN(CCO)CC3)n2)c(OC)n1 [CBK037869] | 58.8292
21 | COC(=O)c1ccc(N2CCN(C(C)c3nnc(C)o3)C(C)C2)cc1 (centres unmarked) [CBK304926] | 132.579
22 | N#Cc1cc(CN2CCCN(S(=O)(=O)c3ccc(C(=O)c4ccccc4)cc3)CC2)ccc1F [CBK062768] | 77.3811
23 | Cc1ccc(S(=O)(=O)/N=C(/NCc2ccc(Cl)cc2)Nc2nc(C)cc(C)n2)cc1 [CBK263785] | 92.8644
24 | CCN1CCN(C(=O)c2ccc(CN(c3ccc(C)c(C)c3)S(C)(=O)=O)cc2)CC1 [CBK267132] | 103.922
25 | Cc1cc(OCCCCNCCO)ccc1Cl [CBK033516] | 64.3711

Row | Compound | % of control remaining
26 | COc1ccc(C(N)C2(O)CCN(Cc3ccccc3)CC2)cc1 (centres unmarked) [CBK091386] | 125.332
27 | Cc1onc(-c2ccccc2)c1CNC(=O)Cn1cc(C)c(=O)[nH]c1=O [CBK144094] | 94.387
28 | Cc1cccn2cc(CC(=O)NC3(C#N)CCCCC3)nc12 [CBK306252] | 39.3182
29 | CN1CCN(c2nc(-c3cc4ccccc4s3)cn3ccnc23)CC1 [CBK066388] | 89.4194
30 | CN(C)c1ccc(NC(=O)C(Cc2ccccc2)N2C(=O)c3ccccc3C2=O)cc1 (centres unmarked) [CBK262413] | 105.892
31 | O=C(Nc1ccccc1[N+](=O)[O-])c1cc(S(=O)(=O)NCc2ccccc2)c(Cl)cc1Cl [CBK263240] | 75.8162
32 | Clc1ccccc1-c1nnc(Cn2c3ccc(Br)cc3c3nc4ccccc4nc32)o1 [CBK269091] | 44.3421
33 | CC(=O)Nc1ccc(-c2cncc(NC3CCC(O)CC3)n2)cc1 (centres unmarked) [CBK065886] | 123.387
34 | CN(C)S(=O)(=O)NC1CC(C)(C)Cc2c1cnn2-c1ccc(F)cc1 (centres unmarked) [CBK306646] | 54.6991
35 | COc1cc(/C=N/NC(=O)CCN2CCN(C)CC2)cc(OC)c1O [CBK261500] | 83.4816
36 | O=C(O)CNC(=O)CN1C(=O)c2ccc(C(=O)O)cc2C1=O [CBK264080] | 110.749
37 | C=CCC1c2cccc(C(=O)O)c2C(=O)N1c1cccc(OC)c1 (centres unmarked) [CBK113160] | 105.596
38 | Cc1cc(NS(=O)(=O)c2ccccc2Br)n(C)n1 [CBK067376] | 82.3367
39 | COc1nc(OCCNS(=O)(=O)c2ccc(C)cc2)nc(N(C)C)n1 [CBK266752] | 108.263
40 | COc1cccc2c(=O)n(CCCn3nc(C)nc3C)cnc12 [CBK307295] | 50.306
41 | Cc1cccnc1NC(=S)Nc1ccc(S(N)(=O)=O)cc1 [CBK267049] | 107.64
42 | CC(C)Cn1cnc2c(Cl)nc3ccccc3c21 [CBK017530] | 70.0461
43 | O=C(CSc1ncccc1C(=O)O)c1ccccc1 [CBK273178] | 109.498
44 | Cc1cc(C(=O)NCCc2ccc(S(N)(=O)=O)cc2)ccc1[N+](=O)[O-] [CBK264390] | 110.831
45 | O=C(NCCN1CCc2ccccc21)C1CC2C=CC1O2 (centres unmarked) [CBK283158] | 96.1296
46 | Cc1ccc(NC(=O)Cn2cnc3sc(C(=O)Nc4ccccc4)c(C)c3c2=O)cc1 [CBK265931] | 133.519
47 | CN1CCOc2ccccc2C(=O)NC/C=C/CC2(CCN(C(=O)c3ccc(F)cc3)CC2)C1=O [CBK292055] | 138.107
48 | CCOCc1c(O)ccc2c([N+](=O)[O-])c(C)n(-c3ccc(OC)cc3)c12 [CBK095589] | 85.3004
49 | OCc1ccc(-n2ncc(-c3ccc(Br)cc3F)n2)cc1 [CBK112920] | 72.094
50 | Nc1nc2c3c(c(-c4ccccc4)nc2[nH]1)CCCC3 [CBK020648] | 79.6185
